Data as given in the supplement of paper PMC3334620.
The full ranking holds about 33,000 sequences; the median of “E-score (-0.5 to 0.5)” is about -0.012, and the highest 2% start at about 0.27. Some of the results follow.

These sequences were tested against T1, Vhr1 (UniProt P40522) (assay: PBM E-score (8-mer binding enrichment) (E-score (-0.5 to 0.5)); higher = stronger / more preferred TF binding; most listed sequences are background and not binding sites). Conditions: protein concentration: 200 nM; construct: GST-full length.
T1 sequence: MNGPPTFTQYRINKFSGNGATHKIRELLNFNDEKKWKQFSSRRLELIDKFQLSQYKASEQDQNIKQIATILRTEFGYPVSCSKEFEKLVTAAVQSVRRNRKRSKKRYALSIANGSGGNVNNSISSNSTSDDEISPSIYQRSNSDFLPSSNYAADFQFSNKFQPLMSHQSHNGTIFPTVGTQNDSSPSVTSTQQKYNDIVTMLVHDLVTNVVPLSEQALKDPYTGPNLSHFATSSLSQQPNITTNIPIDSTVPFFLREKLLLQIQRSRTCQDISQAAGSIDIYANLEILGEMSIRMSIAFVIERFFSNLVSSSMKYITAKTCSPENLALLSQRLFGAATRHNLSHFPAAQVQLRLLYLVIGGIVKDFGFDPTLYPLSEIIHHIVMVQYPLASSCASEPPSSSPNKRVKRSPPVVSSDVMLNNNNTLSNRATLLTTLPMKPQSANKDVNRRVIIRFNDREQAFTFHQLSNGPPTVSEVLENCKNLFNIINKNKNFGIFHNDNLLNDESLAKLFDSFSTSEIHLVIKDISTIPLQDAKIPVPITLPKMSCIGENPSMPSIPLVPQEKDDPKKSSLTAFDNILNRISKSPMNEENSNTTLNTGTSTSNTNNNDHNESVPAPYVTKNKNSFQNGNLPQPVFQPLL
Summary of the method: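 The E-score, a modified Wilcoxon-Mann-Whitney statistic, was computed by the Universal PBM Analysis Suite for every ungapped eight-base word pooled with its reverse complement. Scans behind it were normalised with masliner after bound GST-tagged yeast transcription factors were detected with fluorescent anti-GST. The proteins, at about 100-200 nM, had been applied to universal all-10-mer Agilent arrays made double-stranded by primer extension.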

| Sequence | PBM E-score |
| --- | --- |
| CCGACGAA | 0.0572 |
| GCCTAGGC | -0.247 |
| ACGTCTAG | -0.0685 |
| CCTGGCTC | 0.197 |
| AGTGACCG | -0.117 |
| AGGTGAGC | 0.208 |
| ACCCCCTG | -0.151 |
| GCCTGACC | -0.113 |
| AGTGGTGC | -0.0378 |
| AAGACTTC | -0.228 |
| ACTCCTGG | 0.0389 |
| CCGATACG | -0.153 |
| CCGTCAGG | -0.155 |
| GTAATGGA | 0.0976 |
| GACCATGC | 0.0186 |
| CAACGTCA | -0.0719 |
| TCCAAAAA | -0.245 |
| GAGACCGA | -0.0354 |
| AGCCTGCC | -0.195 |
| GGCGCCGA | -0.00941 |
| AACGAACA | 0.032 |
| ATACAAAC | 0.234 |

| Sequence | PBM E-score |
| --- | --- |
| GTACTTAA | -0.123 |
| CACAGGTC | -0.0511 |
| ATAGGCCG | -0.229 |
| CACGTTCG | -0.085 |
| CTAGGAGA | -0.132 |
| AACCGCGT | 0.0481 |
| TGACTCCA | 0.48 |
| TTAATAAA | 0.202 |
| GAATTGGA | -0.0708 |
| CGTTGCCC | -0.166 |
| CCCCTAAG | -0.0465 |
| CACGTAGC | -0.11 |
| CATGAACC | 0.23 |
| AACTAGAA | -0.115 |
| GTCAGGAC | 0.104 |
| CCTAACCC | -0.163 |
| ACGATGCT | 0.0556 |
| GATGTCCC | -0.044 |
| ATTTTCGA | -0.111 |
| GCCTTAGC | -0.197 |
| GTGGTCTA | -0.0306 |
| AATAGAAC | -0.155 |

| Sequence | PBM E-score |
| --- | --- |
| CAGTTGAC | 0.156 |
| CCGCGCCA | 0.00882 |
| GCGTTGAA | -0.0799 |
| AGCGCCCG | -0.0232 |
| ACACCGTC | -0.112 |
| CTAGTAGA | 0.0512 |
| CACGGCCC | -0.0712 |
| CTTGGGAA | -0.129 |
| ACCCAACG | 0.134 |
| ATCCATAC | 0.0581 |
| GGGAGTAC | 0.135 |
| ATGAAATA | -0.147 |
| GGGTAGAA | -0.131 |
| TGAACTCA | 0.031 |
| GCCCTGAA | -0.095 |
| AATCGCTA | -0.057 |
| CCTAAAGC | -0.278 |
| AAACTCCC | -0.26 |
| AAGATTAG | 0.0572 |
| CTTCAACC | -0.15 |
| GCAGGCCC | -0.199 |
| ATATGGAC | 0.117 |

| Sequence | PBM E-score |
| --- | --- |
| CCCATTCC | -0.0358 |
| ATCTCGCG | 0.0902 |
| GAGCACAC | 0.0763 |
| CTTCCAAG | -0.128 |
| GTTGCATA | 0.0983 |
| GATCCCCA | -0.107 |
| CGAATCTA | -0.172 |
| TGGCAGAA | -0.025 |
| CCCTGTTC | -0.217 |
| CAACTGGG | -0.182 |
| AACATAAG | 0.138 |
| CACTCAGG | 0.117 |
| AACCCACC | 0.313 |
| GACACCGA | 0.0755 |
| AGCAGCTA | -0.118 |
| CCAATCGA | 0.00657 |
| GATACTTA | -0.187 |
| AGTCTCAG | 0.041 |
| ATCTACTA | 0.142 |
| AAGCCATG | -0.0516 |
| ATGTTAAC | 0.16 |
| ACTGTTTA | -0.0395 |

| Sequence | PBM E-score |
| --- | --- |
| CGTAAATA | -0.129 |
| ATTTTCCG | -0.16 |
| ATTCGTTA | 0.114 |
| AATCTTGA | -0.178 |
| CGGACTGC | 0.00522 |
| AATGCATG | 0.0921 |
| ATTGAGCG | 0.00733 |
| GTCGATCA | -0.029 |
| GGTTTCAA | -0.0163 |
| GCCCGGTA | -0.0844 |
| ACTTTCTC | -0.0948 |
| CGCCCGCA | 0.209 |
| CACGCTAA | -0.144 |
| AGTGCCTG | -0.0085 |
| AGCATGCC | -0.0938 |
| GGAAGTCA | 0.282 |
| GGGGTCAA | -0.00112 |
| AAACGAGA | -0.0248 |
| AATGCTTA | -0.143 |
| GCTGCCCC | -0.196 |
| AGGCATGG | 0.0696 |
| ACCCATAA | 0.231 |
